Laboratory results as given in US20240239829A1 (priority 2021, published 2024).

Assays:
porcine rotavirus (PoRV) = settings: newborn piglets aged 1-3 days
[1] = tested on: influenza infection and pneumonia
[2] = NANA-Me:NANA=1:1, 37° C., different pH
Procedure: Using simulated gastric fluid (SGF, pH=1.0), simulated intestinal fluid (SIF, pH=7.3) and phosphate buffer (PBS, pH=4.5) as diluents, the solution of N-acetylneuraminic acid (NANA) or N-acetylneuraminic acid methyl ester (NANA-Me) at the concentration of 5 mg/ml was prepared. The stabilities of N-acetylneuraminic acid, N-acetylneuraminic acid methyl ester and a combination of NANA plus NANA-Me (ratio=1:1) at 37° C. and different pH conditions were measured at various time points of 0.5, 1, 2, 4, and 6 hours. In addition, the optimal ratio of NANA to NANA-Me that maximizes the stability of NANA-Me at different pH conditions was tested at various time points of 0.5, 1, 2, 4, and 6 hours.

[3] = tested on: Lung epithelium cell line A549; test: Sialic acid levels on A549 cells (fluorescent WGA, flow cytometry); settings: over night at 37° C., 1 μg/ml-50 μg/ml
respiratory infection = test: Prevention of respiratory infections of weaning piglets; assay type: in vivo; settings: nursery feed for 4 days from day 15 of weaning
From the text: The sick rate was about 10% and the death rate was about 5%. […] Control feed comprised 500 grams of Tilmicosin per 1000 kg. The nursery feeds were given to 763 of weaning piglets and 750 of controls from day 15 of the weaning period.

Compound: CCN1CCN(c2cc3c(cc2F)c(=O)c(C(=O)O)cn3C2CC2)CC1 [Enrofloxacin]
- efficacy of antibiotic treatment (porcine rotavirus (PoRV)): less than 30%

Compound: CS(=O)(=O)c1ccc([C@@H](O)[C@@H](CF)NC(=O)C(Cl)Cl)cc1 [Antibiotic, Florfenicol]
- Odds Ratio ([1]; death): 0.58
- Death ([1]; number of pigs, via feed mixture for 5-7 days): 5
- Death Rate (%) ([1]; via feed mixture for 5-7 days): 4.76%

Compound: COC(=O)[C@]1(O)CC(O)[C@@H](NC(C)=O)C(C(O)[C@H](O)CO)O1 (some centres unmarked) [NANA-Me, N-acetylneuraminic acid methyl ester]
- stability of NANA-Me in a composition with NANA [2]: improved
- sialic acid levels of the A549 cells [3]: increased in a way of dose dependent

Compound: CC[C@H]1OC(=O)C[C@@H](O)[C@H](C)[C@@H](O[C@@H]2O[C@H](C)[C@@H](O)[C@H](N(C)C)[C@H]2O)[C@@H](CCN2C[C@H](C)C[C@H](C)C2)C[C@@H](C)C(=O)/C=C/C(C)=C/[C@@H]1CO[C@@H]1O[C@H](C)[C@@H](O)[C@@H](OC)[C@H]1OC [Tilmicosin]
- Death Rate (%) (respiratory infection): 5.10%

Compound: CC(=O)N[C@H]1[C@H]([C@H](O)[C@H](O)CO)OC(O)(C(=O)O)C[C@@H]1O (some centres unmarked) [NANA, N-acetylneuraminic acid]
- sialic acid levels of the A549 cells [3]: not changed significantly
